Measured values reported in the supplement of paper PMC11417369.
± gives the standard deviation of the averaged measurements. The list shows a part of the results.

tested on: PfAP2-LT AP2 domain (GST-tagged); assay: gcPBM binding intensity (ln(normalized median fluorescence intensity)); higher = stronger DNA binding
In short: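 GST-fused DNA-binding domains of P. falciparum, expressed in E. coli, were applied at about 25 μg on average for 1 h to an Agilent 4 × 180k array of primer-extended double-stranded 36-bp intergenic genomic probes and negative controls. Binding intensity is the highest Masliner-normalised natural-log median intensity across replicate spots of either probe orientation, measured with Alexa488 anti-GST antibody and a 488 nm scan.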

| Sequence | gcPBM binding intensity (ln) |
| --- | --- |
| TATATATGTATATATTTTATAAGTATGCAAGAAAAT [TGCATGCA_negctrl_site486] | 8.65 ± 0.4 |
| ATATTGGAATAAATTTGTACATATATATATTATTCA [XGTACX_site916] | 8.7 ± 0.44 |
| ACATAATGCTAGACACGTACGTACATCCGTGAGGTT [XGTACX_site4156] | 9.16 ± 0.4 |
| TGAACTCAACAAAGGGTGCATAACAAAAATAGACGT | 9.1 ± 0.52 |
| TTATTATTATATTCTACATGCAGTTTGTGTAGAACA [TGCATGCA_site455] | 8.66 ± 0.38 |
| GTAAAAGAACGGCATGCATGAAAAATATTACACATG [TGCATGCA_site143] | 9.23 ± 0.42 |
| AATATATGGTTTCATGATATTAAATACAATTTAATG [CACACA_negctrl_site1503] | 8.46 ± 0.35 |
| ATATATATATGTATATGTACTTATATTATTGTTTGT [XGTACX_site1466] | 9.05 ± 0.31 |
| CTATAATTATGATGAAGTACATATGAGTTCAAAAAA [XGTACX_site3070] | 8.65 ± 0.53 |
| AAAGTAAATTTAAGCACACACAACGAATTTTTATAC [CACACA_site1959] | 9.34 ± 0.45 |
| TTTCAATAATAAAAAACACACACAAAAAAAAATAAT [CACACA_site8905] | 9.38 ± 0.47 |
| AAAAATATAAACACCAGTACACAAACCTATAATGGA [XGTACX_site3846] | 9.21 ± 0.45 |
| ATATATATACTGTGTACACAAATATATATTATATAT [CACACA_site6104] | 8.93 ± 0.38 |
| AAAAATAAAAAAAGCACACACATATAAATAAATATA [CACACA_site6968] | 9.38 ± 0.35 |
| TAATTTTTCTTTTATTAACACACATATAAATAAATA [CACACA_site8935] | 8.41 ± 0.36 |
| CCCAATAATTAAACAACACACATATTTATAGGTAAT [CACACA_site7445] | 9.31 ± 0.27 |
| TATATGACAAGATAAAGTACAAATTTGTATATATAT [XGTACX_site3027] | 9.04 ± 0.37 |
| ATATATTTATATATTACACACAATATTGTAGACATA [CACACA_site4669] | 8.87 ± 0.32 |
| GAAAGAAATAAAGGTGGTACATAAATAAAAACTAAG [XGTACX_site4826] | 8.95 ± 0.67 |
| TGTAGTCTGGAGAAAAGTACATAGTATCTGGTAGCT [XGTACX_site2031] | 8.82 ± 0.39 |
| AAATTCCACGGACACACACACATATAAATAAATAAA [CACACA_site4811] | 9.74 ± 0.47 |
| TTTACACGTACGTGTACACACAAAAATATGTTTTTA [CACACA_site995] | 8.81 ± 0.38 |
| ATTTATATGGTTTGCACACATAACAACTATGGTTAT [CACACA_site3632] | 9.45 ± 0.33 |
| AACATAAAAAAAATATGTACATATATAATATATATA [XGTACX_site3764] | 8.82 ± 0.49 |
| TAAAATAAAAAGTTTACACACATATATAATTTTAAT [CACACA_site662] | 8.74 ± 0.42 |
